# Experimental data from PubChem BioAssay AID463173 (ICCB-Longwood Screening Facility, Harvard Medical School, 2010).
# Out of some 52,000 compounds screened, about 4,300 (8.3%) were called active. No stated cut-off is given here; in the data, active means survival mostly below about 52% (no sharp cut-off); inactive means mostly above about 56%. The list shows a part of the results.
# Tested on: DeltatarO mutant
# Experiment: S. aureus survival, RN4220 and DeltatarO strains – OD600, teichoic acid synthesis inhibitors, primary screen (AID 463173)
# Conditions: S. aureus RN4220 wild type/DeltatarO growth, OD600, 18 h, stronger effect = lower value, screened at 18.75 µg/mL (by protocol)
row,SMILES,survival
1,O=C(NC1CC(=O)N(c2ccc(Cl)cc2)C1)C(=O)c1c[nH]c2ccccc12 (stereo unspecified),inactive: 77%
2,O=C(Nc1ccccc1)N1CCCC(c2nc(-c3cccs3)no2)C1 (stereo unspecified),inactive: 91%
3,CCOC(=O)c1cc2c(=O)n3ccccc3nc2n(CC(C)C)c1=NC(=O)C(C)Oc1ccccc1 (stereo unspecified),inactive: 165%
4,CC(=O)Nc1ccc(NCc2nnc3n2CCCCC3)cc1,inactive: 66%
5,Cc1ccc(Nc2ccc(N3CCN(C(=O)c4ccc([N+](=O)[O-])cc4Cl)CC3)nn2)cc1,inactive: 120%
6,CCN1CCCC1CNCC(=O)NC1(C)C2CCC(C2)C1(C)C (stereo unspecified),inactive: 100%
7,CC(=O)c1ccc(NC(=O)CSc2nnc3ccc(-c4ccc(F)cc4)nn23)cc1,inactive: 77%
8,CCN(C(=O)c1sc2nc3n(c(=O)c2c1C)CCCC3)c1ccccc1F,inactive: 80%
9,Cc1ccc(CCNC(=O)c2cc(-c3ccccc3)n[nH]2)cc1,inactive: 90%
10,CN(C)c1ccc(C(CNC(=O)c2ccc(C(C)(C)C)cc2)N2CCCC2)cc1 (stereo unspecified),inactive: 103%
11,COc1ccc(CNC(=O)CCc2c(C)nn(-c3ccc(N4CCOCC4)nn3)c2C)c(OC)c1,inactive: 85%
12,Cc1cn2c(=O)cc(COc3ccc(NC(=O)c4ccc(C(C)(C)C)cc4)cc3)nc2s1,inactive: 92%
13,Cc1cccc(NC(=O)C2CCCN2S(=O)(=O)c2cccc3nsnc23)c1C (stereo unspecified),inactive: 67%
14,Cn1cc2ccc(N)cc2n1,inactive: 88%
15,Cc1cccc(C)c1NC(=O)CCSc1nc(-c2ccc3c(c2)OCO3)cc(C(F)(F)F)n1,inactive: 78%
16,Fc1ccccc1C(NCCc1ccc(Cl)cc1)c1nnc(-c2ccccc2)o1 (stereo unspecified),active: -9%
17,O=C(Cn1nc(-c2ccccc2)ccc1=O)NCC1COCCO1 (stereo unspecified),inactive: 92%
18,COc1ccccc1NC(=O)CN(C)S(=O)(=O)c1cccc2cccnc12,inactive: 103%
19,Cc1ccc(Nc2ccc(N3CCN(C(=O)c4cccc([N+](=O)[O-])c4)CC3)nn2)cc1,inactive: 85%
20,O=C(CSc1ncc2c(n1)-c1ccccc1N(Cc1ccc(Cl)cc1)S2(=O)=O)c1ccc(Cl)cc1,inactive: 92%
21,CCOC(=O)c1ccc(NC(=O)CN2C(=O)C(C)(C)c3ccccc32)cc1,inactive: 115%
22,CCc1nc(C)ccc1O,inactive: 62%
23,Cc1ccc(C)c(NC(=O)c2cnn(-c3ccc(F)cc3F)c2C2CCNCC2)c1,inactive: 83%

row,SMILES,survival
1,COc1ccc(NC(=O)CCS(=O)(=O)c2cc3c(cc2C)NC(=O)CO3)cc1Cl,inactive: 100%
2,CCCc1cnc2c(c1SCC(=O)Nc1ccc([N+](=O)[O-])cc1)c(=O)n(C)c(=O)n2C,inactive: 66%
3,CCOC(=O)c1ccccc1NC(=O)N(Cc1ccc(CC)cc1)Cc1cn[nH]c1-c1ccc(OC)cc1,inactive: 55%
4,Cc1ccc(C2CC(=O)n3nc(-c4ccc(F)cc4)nc3S2)cc1 (stereo unspecified),inactive: 80%
5,Cc1cccc(NC(=O)c2cccc(N3CCCS3(=O)=O)c2)c1,inactive: 78%
6,O=C(COc1ccc(F)cc1)Nc1ccc(OCc2cc(=O)n3ccsc3n2)cc1,inactive: 80%
7,Cc1ccccc1NC(=O)Cn1c(=O)n(CCC(=O)N2CCc3ccccc3C2)c(=O)c2ccccc21,inactive: 86%
8,Cc1ccc(CNC(=O)CN2Cc3ccccc3C2=O)cc1,inactive: 87%
9,COc1ccc(NS(=O)(=O)c2cc(-c3onc(C)c3C)ccc2C)c(OC)c1,inactive: 89%
10,CCC1CN(C(=O)N2CCC(C(=O)NCCCc3ccccc3)CC2)c2cc(C)ccc2O1 (stereo unspecified),inactive: 72%
11,CN(Cc1ccccc1)C(=O)CSc1c2c(nc3ccc(Cl)cc13)CCCC2,active: 0%
12,O=C(c1cccnc1Nc1ccccc1F)N1CCCCC1,inactive: 108%
13,CNc1nc(SCC(=O)OC)nc(N2CCOCC2)n1,inactive: 100%
14,Cc1ccc(-c2c(CN3CCN(c4cccc(C)c4C)CC3)csc2C)cc1,active: 21%
15,COc1ccc(-n2nc(C(=O)NCCc3ccc(Cl)cc3)c3c4ccccc4n(C)c3c2=O)cc1,inactive: 71%
16,COc1ccc(C2c3c(-c4ccccc4)n[nH]c3C(=O)N2c2ccc(C(=O)O)cc2)c(OC)c1 (stereo unspecified),inactive: 96%
17,Cc1ccc(NC(=O)Cn2c(=O)n(CCC(=O)N3CCc4ccccc4C3)c(=O)c3ccccc32)c(C)c1,inactive: 105%
18,COc1cc(NC(=O)Cn2c(-c3ccccc3)cc(C(C)=O)c2C)cc(OC)c1,inactive: 83%
19,Cc1ccc(-c2cnc(C3CC3)o2)cc1S(=O)(=O)Nc1cccc(C#N)c1,inactive: 123%
20,Cc1nc2c3ccccc3nc(NNC(=O)CCC(=O)O)n2n1,inactive: 94%
21,Cc1ccc(NC(=O)CN2C(=O)CCSc3ccccc32)c(C)c1,inactive: 79%
22,COc1ccc(CCNC(=O)c2ccc3c(c2)nc(C)n3-c2ccc(Br)cc2)cc1OC,inactive: 54%
23,O=C(O)c1ccc(NC(=O)c2ccc(Cl)c(S(=O)(=O)N3CCCCCC3)c2)cc1,inactive: 131%

row,SMILES,survival
1,CN(C1CCCCC1)S(=O)(=O)c1ccc2c(c1)c(=O)c(C(=O)N1CCN(c3ccccc3)CC1)cn2C,inactive: 86%
2,O=S(=O)(NCCS(=O)(=O)N1CCN(c2ccccc2)CC1)c1ccccc1,inactive: 81%
3,COC(=O)c1ccc(NC(=O)C(C)Sc2nc(=O)cc(N)n2CCc2ccccc2)cc1 (stereo unspecified),inactive: 122%
4,CCC(=O)Nn1cnc2c(c1=O)C1(CCCCC1)Cc1ccccc1-2,inactive: 62%
5,Cc1nn(CCC(=O)Nc2ccc(Cl)cc2)c(C)c1S(=O)(=O)N1CCCCC1,inactive: 122%
6,COc1ccccc1Cn1cc(C(=O)c2ccccc2)c(=O)c2cc(OC)c(OC)cc21,active: 23%
7,COc1ccc(-c2cc(C(=O)Nc3cc(C(F)(F)F)ccc3Cl)no2)cc1,inactive: 47%
8,N#CC1=C(N)OC2=C(C(=O)CCC2)C1c1ccoc1 (stereo unspecified),inactive: 74%
9,CCOc1ccc(C(=O)Nc2ccc(-c3cc4ccccc4oc3=O)cc2)cc1Br,inactive: 84%
10,CN(C)c1ccc(CNC(=O)C2CCN(c3nnc(-n4cccc4)s3)CC2)cc1,inactive: 73%
11,O=C(Nc1ccc(Cl)cc1Cl)c1cc(S(=O)(=O)NCc2ccc3c(c2)OCO3)ccc1F,inactive: 94%
12,Cn1c(=O)c2c(nc3n2Cc2c(Cl)cccc2N3CCNC(=O)C2CCC2)n(C)c1=O,inactive: 98%
13,Cc1ccccc1NC(=O)c1cc2c([nH]c1=O)CC(C)(C)CC2=O,inactive: 92%
14,COCCNC(=O)CSc1c(C)cnc2c1c(=O)n(C)c(=O)n2C,inactive: 85%
15,Cc1ccc(NC(=O)Cn2cnc3c(oc4ccccc43)c2=O)cc1Cl,inactive: 82%
16,COc1ccc(NC(=O)CCCOc2cc(=O)n(C)c3ccccc23)c(OC)c1,inactive: 145%
17,Cn1c(NCc2cccc(Cl)c2)nc2ccccc21,inactive: 104%
18,CCCn1c2ccccc2c2cnn(CC(=O)NCCc3ccc(S(N)(=O)=O)cc3)c(=O)c21,inactive: 130%
19,CC1CCC(=O)C(C2(O)C(=O)Nc3ccccc32)C1 (stereo unspecified),inactive: 93%
20,CCc1cccc(NC(=O)C2CCN(S(=O)(=O)c3ccc(Br)s3)CC2)c1,inactive: 93%
21,COc1cc(OC)c(NC(=O)C2=C(C)C(=O)OC23CCN(C(C)=O)CC3)cc1Cl,inactive: 75%
22,Cc1ccc(CSc2nc3cccnc3n2Cc2ccc(C(=O)NC3CC3)cc2)cc1,inactive: 75%
23,O=C(NCc1ccccc1)c1cccn1-c1nnc(N2CCCCC2)s1,inactive: 92%

row,SMILES,survival
1,Cc1ccc(C)c(NC(=O)Nc2cc3c(cc2N2CCCCC2)n(C)c(=O)n3C)c1,inactive: 90%
2,COc1ccc(Cn2c(C(=O)O)c(CNCc3ccco3)c3ccc(C)cc32)cc1,inactive: 83%
3,O=C1Nc2ccc(S(=O)(=O)Nc3ccccc3)c3cccc1c23,inactive: 101%
4,CCSc1nnc(C2CCCN(Cc3cccnc3)C2)n1C(C)C (stereo unspecified),inactive: 80%
5,CCOc1ccccc1CNC(=O)c1cnn(-c2ccc(C)cc2)c1-n1cccc1,active: 37%
6,Nc1n[nH]c(CCc2ccccc2)n1,inactive: 93%
7,CC1CCCCN1CCNC(=O)c1ccc(Cn2c(SCc3ccccc3)nc3cccnc32)cc1 (stereo unspecified),inactive: 116%
8,Cc1nn(-c2ccc(N3CCOCC3)nn2)c(C)c1CCC(=O)NCc1ccc(Cl)cc1,inactive: 107%
9,O=C(COc1ccc(Cl)cc1)N1CCCCC1,inactive: 83%
10,CCS(=O)(=O)c1ncc(Cl)c(C(=O)Nc2ccc(S(=O)(=O)N(C)c3ccccc3)cc2)n1,active: 0%
11,Cn1c(=O)c2c(n3nnnc13)-c1ccccc1CC21CCCC1,inactive: 110%
12,Cc1cccc(C)c1Nc1sc(C(=O)c2ccccc2)c(N)c1S(=O)(=O)c1ccccc1,inactive: 92%
13,CCN1CCN(C(C)C(=O)NC(c2ccccc2)c2ccccc2)CC1 (stereo unspecified),inactive: 78%
14,COc1ccc2nc3sc(C(=O)NCCc4ccc(Cl)cc4)cc3cc2c1,inactive: 103%
15,COc1ccccc1C(=O)Nc1nnc(SCc2cc(=O)c3ccccc3[nH]2)s1,inactive: 96%
16,CCOc1ccc(NC(=O)c2cc3cc4ccc(C)cc4nc3o2)cc1,inactive: 83%
17,Brc1cccc(-c2nnn3c2nc(NC2CCCCC2)c2ccccc23)c1,inactive: 64%
18,N#C/C(=C\c1cn(CC(=O)N2CCCC2)c2ccccc12)C(=O)NC1CC1,inactive: 75%
19,Cc1ccc(-n2c(=O)c3ccc(C(=O)NCc4ccco4)cc3n(Cc3ccccc3Cl)c2=O)cc1,inactive: 99%
20,CCOC(=O)c1c(-c2cccs2)csc1NC(C)=O,inactive: 69%
21,O=C(CSc1ncccn1)N1CCc2ccccc2C1,inactive: 93%
22,COc1cccc(C=Nc2ccc3c(c2)ncn3C)c1OC,inactive: 84%
